{"source": "PubChem BioAssay AID1458", "about": "(National Center for Advancing Translational Sciences (NCATS), 2008)", "note": "Hit rate of the full screen: of about 210,000 compounds, about 5,900 (2.8%) were called active. This list was built around the results that the source calls inconclusive (neither active nor inactive); the mix of calls is not that of the screen. The call rests on the fitted dose curve; in most records, active means well fitted activation curve with a large enough effect; inconclusive means small, poorly fitted or top-dose-only effect; inactive means no such curve, though single readings can be large or run the other way. Potencies of inconclusive entries are doubtful fits and often do not repeat. Potency means the concentration at half of the fitted maximal effect; tags describe the fitted curve by direction and shape.", "data": [{"assay": "qHTS Assay for Enhancers of SMN2 Splice Variant Expression; further: nearly all actives have a fitted effect of over 55% in size", "settings": "HEK293 SMN2-luciferase splicing reporter, luminescence, 30-36 h; series mostly up to 46.1 µM", "description": "NIH Chemical Genomics Center [NCGC] NIH Molecular Libraries Probe Production centers Network [MLPCN] MLPCN Grant: R03 MH084179-01 Assay Submitter (PI): Elliot Androphy NCGC Assay Overview: Spinal muscular atrophy (SMA) is caused by insufficient levels of the survival motor neuron protein SMN. The SMN locus on chromosome 5q13 contains two inverted copies of SMN called SMN1 and SMN2 which are 99% identical at the amino acid level. SMN1 is a fully functional protein and SMN2 skips exon 7 90% of the time. Skipping of exon 7 produces non-functional protein product. 10% of the SMN2 protein includes exon 7 and is fully functional. In the SMA disease state, mutations in the SMN1 locus are the cause of the disease state. Because only 10% of SMN2 is of the fully functional form, it is not sufficient to overcome the deficiency produced by the loss of the SMN1 product. A therapy that either increase the amount of SMN2 product made or to increase the inclusion of exon 7 has been proposed for the treatment of SMA. We have designed an assay to identify small molecules that can increase the amount of functional SMN2 product by appending a luciferase reporter gene after the native SMN2 gene, such that inclusion of exon 7 in the expressed product places the luciferase sequence in frame, thus generating functional luciferase enzyme.\nNCGC Assay Protocol Summary: This screen utilizes a luciferase reporter gene assay, combining the promoter and splicing based cassettes in tandem with the major portion of the native SMN2 cDNA, and then transfected into HEK293 cells. Compounds that increase luciferase signal presumably enhance expression of the functional SMN2 splice variant. Passaging media contained DMEM w/ glutamax (+phenol red) 10% FCS, 1x pen/strep, 200 ug/ml hygro, 1x sodium pyruvate. Assay media contained DMEM w/ glutamax (-phenol red) 10% FCS, 1x pen strep, 1x pyruvate Sequence, Parameter, Value, Description (1) Cells, […], 2000 cells/well, 1536 TC treated White solid bottom plate (2) Time, 10-12 hours, 37C 5% CO2 (3) Compound, 23 nl, MLSMR Library (4) Control Compound, 23 nL, Sodium butyrate st 4.5mM (final) conc (5) Time, 30-36 hours, 37C 5% CO2 (6) Reagent, 3 ul, One Glo (TM) from Promega (7) Time, 5-15 minutes, Room temp (8) Detector, Viewlux: luminescent read, 60 second integration, high speed 2x binning Keywords: Spinal muscular atrophy, SMA, SMN2, high throughput screening, MLSMR, MLPCN, NIH Roadmap, qHTS and NCGC", "values": [{"compound": "N/C(=N\\OC(=O)/C=C/c1ccccc1)c1ccccn1", "Potency": "active: 12.6 µM"}, {"compound": "Cc1c(Cl)cccc1NC(=O)COc1ccc(S(=O)(=O)N2CCOCC2)cc1", "Potency": "inconclusive: 0.0028 µM [activator, full curve, poor fit]"}, {"compound": "Cn1c(C(=O)N2CCc3ccccc3C2)cc2oc3ccccc3c21", "Potency": "active: 22.4 µM"}, {"compound": "COc1cccc2c1C(=O)O/C2=C/c1ccc2c(c1)OCO2", "Potency": "inconclusive: 2.51 µM [activator, partial curve]"}, {"compound": "c1ccc(CCNc2nc3ccccc3n3nnnc23)cc1", "Potency": "inconclusive: 0.251 µM [activator, full curve, poor fit]"}, {"compound": "CC(C)(C)c1cc(NC(=O)c2cccnc2)no1", "Potency": "inconclusive: 12.6 µM [activator, single point]"}, {"compound": "O=[N+]([O-])c1cccc(-c2nnc(-c3ccccc3)o2)c1", "Potency": "active: 20 µM"}, {"compound": "COc1cc(C(=O)OCc2cc3ccccc3[nH]c2=O)cc(OC)c1OC", "Potency": "inconclusive: 5.62 µM [activator, full curve, poor fit]"}, {"compound": "O=C(NCc1cccnc1)NC1(C(F)(F)F)Oc2ccc(Cl)cc2O1", "note": "(centres undefined)", "Potency": "inconclusive: 14.1 µM [activator, partial curve]"}, {"compound": "Cn1c(CCCNC(=O)c2cccs2)nc2ccccc21", "Potency": "inconclusive: 3.98 µM [activator, partial curve, poor fit]"}, {"compound": "Cc1ccc(S(=O)(=O)NC(C)(C)CSc2nnc(Nc3ccccc3)s2)cc1", "Potency": "inactive"}, {"compound": "CC1CCC(NC(=O)c2cc3c(s2)CS(=O)(=O)C3)CC1", "note": "(centres undefined)", "Potency": "inconclusive: 6.31 µM [activator, partial curve, poor fit]"}, {"compound": "COC(=O)c1c(NC(=O)c2cnccn2)sc2c1CCC2", "Potency": "inconclusive: 0.794 µM [activator, partial curve, poor fit]"}, {"compound": "COCC1=C2c3ccccc3[C@H](C[N+](=O)[O-])C(C(=O)OC)(C(=O)OC)CC2C2C(=O)N(c3ccccc3)C(=O)C2C1", "note": "(some centres undefined)", "Potency": "inactive"}, {"compound": "O=C(O)CCCC(=O)N1CCN(c2cccc(Cl)c2)CC1", "Potency": "inconclusive: 1.12 µM [activator, full curve, poor fit]"}, {"compound": "CCc1ccc(NC(=O)c2nnn(Cc3cccc(C(F)(F)F)c3)c2N)cc1", "Potency": "inconclusive: 5.62 µM [activator, full curve, poor fit]"}, {"compound": "COc1ccccc1N1CCN(S(=O)(=O)CC23CCC(CC2=O)C3(C)C)CC1", "note": "(centres undefined)", "Potency": "inconclusive: 3.16 µM [activator, single point]"}, {"compound": "CC1CCc2nc(NC(=O)C3CCCO3)sc2C1", "note": "(centres undefined)", "Potency": "active: 2 µM"}, {"compound": "O=C(CN1C(=O)C2C3CCC(C3)C2C1=O)N1CCN(Cc2ccccc2)CC1", "note": "(centres undefined)", "Potency": "inconclusive: 5.01 µM [activator, single point]"}]}]}
